# This is one part of the list.
# Tests used:
# Experiment in all cases: glycan array binding signal (z-score within array); higher = stronger binding
# Conditions in all cases: glycan notation: IUPAC condensed, linker removed
# [1] = target: Gal(b1-4)GlcNAc(b1-3)[Gal(b1-4)GlcNAc(b1-6)]GalNAc
# Procedure, shortened: (§1)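 Glycan array data were curated from 3228 arrays in the Consortium for Functional Glycomics database and kept only where the protein sequence was available. Glycan names were converted to IUPAC-condensed notation, and columns mapping to the same glycan were averaged. The binding signal is a within-array Z-score, averaged across arrays of the same protein sequence at different concentrations or buffers and across linkers. Negative Z-scores can be read as non-binding.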
# [2] = target: Gal(b1-4)GlcNAc(b1-6)GalNAc
# Procedure, shortened: as §1
# [3] = target: Gal(b1-4)GlcNAc(b1-6)[Gal(b1-3)]GalNAc
# Procedure, shortened: as §1
# [4] = target: Gal(b1-4)GlcNAc(b1-6)[Gal(b1-3)]GlcNAc
# Procedure, shortened: as §1
# [5] = target: Gal3S(b1-3)GalNAc
# Procedure, shortened: as §1
# [6] = target: Gal3S(b1-3)GlcNAc
# Procedure, shortened: as §1
# [7] = target: Gal3S(b1-3)[Fuc(a1-4)]GlcNAc
# Procedure, shortened: as §1
# [8] = target: Gal3S(b1-4)Glc
# Procedure, shortened: as §1
# [9] = target: Gal3S(b1-4)Glc6S
# Procedure, shortened: as §1
# [10] = target: Gal3S(b1-4)GlcNAc
# Procedure, shortened: as §1
# [11] = target: Gal3S(b1-4)GlcNAc6S
# Procedure, shortened: as §1
# [12] = target: Gal3S6S(b1-4)GlcNAc
# Procedure, shortened: as §1
# [13] = target: Gal3S6S(b1-4)GlcNAc6S
# Procedure, shortened: as §1
# [14] = target: Gal4S(b1-4)GlcNAc
# Procedure, shortened: as §1
# [15] = target: Gal4S6S(b1-4)GlcNAc
# Procedure, shortened: as §1
# [16] = target: Gal6S(b1-4)Glc
# Procedure, shortened: as §1
# [17] = target: Gal6S(b1-4)Glc6S
# Procedure, shortened: as §1
# [18] = target: Gal6S(b1-4)GlcNAc
# Procedure, shortened: as §1
# [19] = target: GalNAc(a1-3)Gal
# Procedure, shortened: as §1
# [20] = target: GalNAc(a1-3)GalNAc
# Procedure, shortened: as §1
# [21] = target: GalNAc(b1-3)Gal(a1-4)Gal(b1-4)GlcNAc
# Procedure, shortened: as §1
# [22] = target: GalNAc(b1-4)GlcNAc
# Procedure, shortened: as §1
# [23] = target: Glc(a1-4)Glc
# Procedure, shortened: as §1
# [24] = target: Glc(a1-6)Glc(a1-6)Glc
# Procedure, shortened: as §1
# [25] = target: Glc(b1-4)Glc
# Procedure, shortened: as §1
# [26] = target: Glc(b1-6)Glc
# Procedure, shortened: as §1
# [27] = target: GlcA(b1-3)Gal
# Procedure, shortened: as §1
# [28] = target: GlcA(b1-6)Gal
# Procedure, shortened: as §1
# [29] = target: GlcNAc(a1-3)Gal(b1-4)GlcNAc
# Procedure, shortened: as §1
# [30] = target: GlcNAc(a1-6)Gal(b1-4)GlcNAc
# Procedure, shortened: as §1
# [31] = target: GlcNAc(b1-2)Gal(b1-3)GlcNAc
# Procedure, shortened: as §1
# [32] = target: GlcNAc(b1-2)Man(a1-3)[GlcNAc(b1-2)Man(a1-6)]Man(b1-4)GlcNAc(b1-4)GlcNAc
# Procedure, shortened: as §1
# [33] = target: GlcNAc(b1-3)Gal
# Procedure, shortened: as §1
# [34] = target: GlcNAc(b1-3)Gal(b1-3)GalNAc
# Procedure, shortened: as §1
# [35] = target: GlcNAc(b1-3)Gal(b1-4)Glc
# Procedure, shortened: as §1
# [36] = target: GlcNAc(b1-3)Gal(b1-4)GlcNAc
# Procedure, shortened: as §1
# [37] = target: GlcNAc(b1-3)Gal(b1-4)GlcNAc(b1-3)Gal(b1-4)GlcNAc
# Procedure, shortened: as §1
binder,measurement,setting,value
"EcCDA (Encephalitazoon cuniculi), Q8SU65 (protein) MLLCLLYFTSSWCSGSDVPDVCTNSGMIAINFVDGPVRGVTDRILNTLDELGVKATFSFTVNQKAVGNVGQLYRRAVEEGHNVALRVDPSMDEGYQCLSQDALENNVDREIDTIDGLSGTEIRYAAVPICNGQVNSEMYNILTERGVLPVGYTFCPYDYDDPVGEFESMIEGSDPKHHSFIILMHDGQEADTSRLENMVKIGKDKGYRFVNMDECLQGYKGAPGDPELSLRGKGVESIGKGFLPFFLMMLVRLL",glycan array binding signal (z-score),[1],-0.371
same,glycan array binding signal (z-score),[2],-0.303
same,glycan array binding signal (z-score),[3],-0.1
same,glycan array binding signal (z-score),[4],-0.237
same,glycan array binding signal (z-score),[5],0.115
same,glycan array binding signal (z-score),[6],-0.237
same,glycan array binding signal (z-score),[7],-0.196
same,glycan array binding signal (z-score),[8],0.022
same,glycan array binding signal (z-score),[9],5.58
same,glycan array binding signal (z-score),[10],0.171
same,glycan array binding signal (z-score),[11],-0.289
same,glycan array binding signal (z-score),[12],-0.044
same,glycan array binding signal (z-score),[13],-0.295
same,glycan array binding signal (z-score),[14],-0.202
same,glycan array binding signal (z-score),[15],-0.213
same,glycan array binding signal (z-score),[16],0.56
same,glycan array binding signal (z-score),[17],0.182
same,glycan array binding signal (z-score),[18],-0.092
same,glycan array binding signal (z-score),[19],-0.277
same,glycan array binding signal (z-score),[20],-0.238
same,glycan array binding signal (z-score),[21],1.6
same,glycan array binding signal (z-score),[22],-0.289
same,glycan array binding signal (z-score),[23],-0.197
same,glycan array binding signal (z-score),[24],-0.126
same,glycan array binding signal (z-score),[25],-0.417
same,glycan array binding signal (z-score),[26],-0.497
same,glycan array binding signal (z-score),[27],-0.333
same,glycan array binding signal (z-score),[28],-0.32
same,glycan array binding signal (z-score),[29],-0.454
same,glycan array binding signal (z-score),[30],-0.33
same,glycan array binding signal (z-score),[31],-0.418
same,glycan array binding signal (z-score),[32],-0.153
same,glycan array binding signal (z-score),[33],-0.494
same,glycan array binding signal (z-score),[34],2.65
same,glycan array binding signal (z-score),[35],-0.339
same,glycan array binding signal (z-score),[36],-0.412
same,glycan array binding signal (z-score),[37],0.29

# From the supplement of paper PMC8728848
